Laboratory results taken from PubChem BioAssay AID588855 (National Center for Advancing Translational Sciences (NCATS), 2011).
The whole screen tested about 410,000 compounds, of which about 5,000 (1.2%) were called active. This list was built around the results that the source calls inconclusive (neither active nor inactive); the mix of calls is not that of the screen. Calls come from the whole dose curve; as a rule, active = well fitted inhibition curve with a large enough effect; inconclusive = small, poorly fitted or top-dose-only effect; inactive = no such curve, though single readings can be large or run the other way. Potencies of inconclusive entries are doubtful fits and often do not repeat. Numbered stars: 1 amine (or outer) side, 2 acyl side, 3 side chain; on linkers, the order of the positions; unused ones are H or OH. Bridge positions count the residues as written; N and C are the ends. Square brackets hold non-standard residues; d marks the D form. Peptide text beside a SMILES is read from it. * marks the point of attachment. ξ: configuration not given here. X9 = CC[C@H](CCC[C@@H](O)[C@@H](C)C(=O)O[C@H](C)[C@@H](C)C/C=C(C)/C(=C\C(=O)[*:1])OC)O[*:2]; NMeξIle = CC[C@H](C)C(NC)C(=O)O; Hyp = O=C(O)[CH]1C[CH](O)CN1; NMeV = CN[C@H](C(=O)O)C(C)C; NMeS = CN[C@@H](CO)C(=O)O; Cbz = O=C(OCc1ccccc1)*; OBn = c1ccc(CO*)cc1

Assay: qHTS for Inhibitors of TGF-b; note: nearly all actives have a fitted effect of over 65% in size
Conditions: HepG2 CAGA-GFP TGF-b/SMAD3 reporter, GFP fluorescence, 18 h, TGF-beta stimulated, 500 pg/mL final; series mostly up to 46.1 µM; activity, negative = inhibition: at the top concentration
Outline: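 Inhibition of TGF-beta-driven CAGA-GFP reporter expression in HEPG2 cells is measured by cellular GFP fluorescence after 18 h stimulation with 500 pg/mL recombinant TGF-beta in 1% FBS medium at 37 degrees C.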
% is set by controls: 0 for no effect and ±100 for the full control effect; potency is the fitted concentration of half-maximal effect; tags give direction and shape of the fitted curve.

Row | SMILES | activity, negative = inhibition | Potency
1 | CC1(C)Cc2c(c(N3CCOCC3)nc3snc(Br)c23)CO1 | inactive: -3.68% | 
2 | CC(C)n1ncc2c(C(=O)Nc3cccc(C#N)c3)cc(C3CC3)nc21 |  | inconclusive: 22.4 µM [inhibitor, single point]
3 | CCCCCCCCCC[n+]1cccc2c3ccccc3ccc21 |  | active: 12.6 µM
4 | CCOc1cc(-c2noc(N)c2C(=O)OC)cc(OCC)c1OCC | inactive: -2.4% | 
5 | c1ccc(-c2cc(-c3nc(-c4ccccn4)no3)c3ccccc3n2)cc1 | inactive: -16.4% | 
6 | CC(C)C[C@@H]1NC(=O)[C@H](Cc2ccccc2)N(C)C(=O)[C@H](C)NC(=O)c2ccccc2NC(=O)[C@H](Cc2ccc(O)cc2)N(C)C1=O | inactive: -9.2% | 
7 | Cc1ccc(S(=O)(=O)CCC(=O)OC(C)c2nnc(-c3cccs3)o2)cc1 (stereo not drawn) | inactive: 5.29% | 
8 | O=C1NC[C@H](c2ccccc2)OC(=O)[C@@H](Cc2ccc(F)cc2)CC/C=C/C[C@H]1CC(=O)N(CCO)Cc1ccccc1 |  | active: 11.2 µM
9 | CCc1n[nH]c(=S)n1/N=C/c1c(C)nn(-c2ccccc2)c1Cl | inactive: -1.26% | 
10 | CC1CCCC(C)N1CC(O)COc1c(F)cc(Br)cc1F (stereo not drawn) | inactive: 3.83% | 
11 | CCOC(=O)c1cnc2c(OC)cccc2c1NCc1cccnc1 |  | inconclusive: 15.8 µM [inhibitor, single point]
12 | Cc1cc([N+](=O)[O-])nn1CC(=O)Nc1nccs1 |  | inconclusive: 5.62 µM [inhibitor, single point]
13 | O=C(CSc1nnc(-c2cccnc2)o1)Nc1ccccc1Br | inactive: 6.26% | 
14 | CCOC(=O)C(CC)Sc1ccc2nnc(CCNS(=O)(=O)c3ccccc3)n2n1 (stereo not drawn) | inactive: -3.93% | 
15 | CCOc1ccc(Cc2n[nH]c(=S)n2Cc2ccccc2)cc1 |  | inconclusive: 15.8 µM [inhibitor, partial curve, poor fit]
16 | O=C(/C=C/Nc1ccc(F)c(Cl)c1)c1ccccc1 | inactive: -3.67% | 
17 | Fc1ccc(C(Nc2ccc(Cl)c(C(F)(F)F)c2)c2nnc(-c3ccccc3)o2)cc1 (stereo not drawn) |  | active: 10 µM
18 | O=C(NC(=S)Nc1ccccc1O)c1ccc(-c2ccc(Cl)cc2)o1 |  | inconclusive: 35.5 µM [inhibitor, single point]
19 | OCC1(Cc2ccccc2)CCN(Cc2ccc(C(F)(F)F)cc2)CC1 |  | inconclusive: 35.5 µM [inhibitor, single point]
20 | Cc1ccc(NC(=O)COC(=O)CCc2c[nH]c(=O)[nH]2)cc1 |  | inconclusive: 35.5 µM [inhibitor, single point]
21 | CCc1nnc(NS(=O)(=O)c2ccc(NC(=S)NC(=O)/C=C/c3ccc(C(C)C)cc3)cc2)s1 |  | inconclusive: 12.6 µM [inhibitor, partial curve, poor fit]

Row | SMILES | activity, negative = inhibition | Potency
22 | O=C(Cn1c(=O)n(-c2ccc(Cl)cc2)c(=O)c2sc3ccccc3c21)NC1CCCCC1 |  | inconclusive: 5.62 µM [inhibitor, single point]
23 | CCOC(=O)c1cnc(-c2ccccc2)nc1Oc1ccc(OC)cc1 | inactive: -2.01% | 
24 | COC(=O)C(Cc1c[nH]c2ccccc12)NC(=O)C(=O)c1c[nH]c2ccccc12 (stereo not drawn) |  | inconclusive: 12.6 µM [inhibitor, partial curve]
25 | COC(=O)CSC1=C(C#N)C(c2cccc(F)c2)CC(=O)N1 (stereo not drawn) |  | inconclusive: 35.5 µM [inhibitor, single point]
26 | Cn1c(=O)n(CCCOc2ccc(Cl)cc2)c2ccccc21 | inactive: 29.5% | 
27 | O=C(c1cccs1)N1C[C@H](n2cc(-c3ccc(F)cc3)nn2)[C@@H](O)C[C@@H]1c1ccc(Cl)cc1 |  | inconclusive: 35.5 µM [inhibitor, single point]
28 | COc1cc(/C=C(\C#N)c2nc3ccc(C)cc3[nH]2)ccc1OC(C)C | inactive: 68.8% | 
29 | CC(=O)c1ccc(-c2cnc3c(NC=O)cc(-c4cnn(C)c4)cn23)cc1 |  | inconclusive: 35.5 µM [inhibitor, partial curve, poor fit]
30 | CCOc1cc(C2C(C#N)=C(N)OC(C)=C2C(C)=O)c(Br)c(Br)c1OC(C)C (stereo not drawn) |  | active: 15.8 µM
31 | Cc1c(C(=O)NCc2nnc(-c3ccccc3)o2)oc2c(F)cccc12 |  | inconclusive: 2.24 µM [inhibitor, full curve, poor fit]
32 | CC1CCN(S(=O)(=O)c2cc([N+](=O)[O-])ccc2Cl)CC1 |  | inconclusive: 12.6 µM [inhibitor, partial curve, poor fit]
33 | Cc1ccc(OCCN2CCN(C(=O)CCC(=O)Nc3nnc(CC(C)C)s3)CC2)cc1 |  | active: 11.2 µM
34 | O=C(CSc1ccc(-c2nc3ccccc3[nH]2)cn1)Nc1ccc(S(=O)(=O)N2CCCC2)cc1 |  | inconclusive: 3.98 µM [inhibitor, full curve, poor fit]
35 | N#C/C(=C\c1ccc(Br)cc1)c1nc(-c2cc3cc(Br)ccc3oc2=O)cs1 | inactive: -0.861% | 
36 | Cc1ccccc1C(=O)c1c[nH]c(C(=O)N2CCN(c3ccccc3F)CC2)c1 |  | inconclusive: 11.2 µM [inhibitor, partial curve]
37 | O=C(NCC(=O)N1CC(O)CC1C(=O)N1CCCC1C(=O)OCc1ccccc1)OCc1ccccc1 (stereo not drawn) (Cbz-Gly-[Hyp]-Pro-OBn; configuration not given here) |  | inconclusive: 14.1 µM [inhibitor, single point]
38 | c1ccc(SCc2cn(C[C@H]3CC[C@@H]([C@@H]4CC[C@H](Cn5cc(CSc6ccccc6)nn5)O4)O3)nn2)cc1 |  | inconclusive: 20 µM [inhibitor, single point]
39 | O=c1cc(N2CCCCC2)c(-c2ccccc2)nn1Cc1ccc(F)cc1 |  | inconclusive: 35.5 µM [inhibitor, single point]
40 | Cc1ccc(CCNC(=O)c2cc3sccc3n2Cc2ccc(F)cc2)cc1 | inactive: -3.58% | 
41 | CC[C@@H]1CCC[C@@H](O)[C@@H](C)C(=O)O[C@H](C)[C@@H](C)C/C=C(C)/C(OC)=C\C(=O)N(C)C([C@@H](C)CC)C(=O)N(C)[C@@H](C(C)C)C(=O)N(C)[C@@H](COC)C(=O)N2CCC[C@H]2C(=O)N(C)[C@@H](C(C)C)C(=O)N2CCC[C@H]2C(=O)O1 (stereo partly drawn) ([NMeξIle][NMeV][NMeS](Me)P[NMeV]P; linker N-C via X9) |  | inconclusive: 3.55 µM [inhibitor, partial curve, poor fit]
42 | Cc1ccc(C(=O)CC(SCC(=O)O)c2ccc([N+](=O)[O-])cc2)cc1 (stereo not drawn) |  | inconclusive: 35.5 µM [inhibitor, single point]

Row | SMILES | activity, negative = inhibition | Potency
43 | Cc1cc(C(=O)CSc2cccc[n+]2[O-])c(C)n1-c1ccc(OC(F)F)cc1 | inactive: -19.4% | 
44 | CC1(C)NC(=O)N(CCCCSc2ccc(Cl)cc2)C1=O |  | inconclusive: 22.4 µM [inhibitor, single point]
45 | Cc1ccc(NS(=O)(=O)c2cc(C(=O)NCCSc3ccc(C)cc3)ccc2C)cc1 |  | inconclusive: 31.6 µM [inhibitor, single point]
46 | Cc1cc(C)n(CC(O)Cn2c3ccc(Cl)cc3c3cc(Cl)ccc32)c(=O)n1 (stereo not drawn) |  | inconclusive: 35.5 µM [inhibitor, single point]
47 | [O-][n+]1c2ccccc2c2n1CCN=C2c1ccc(Cl)cc1 | inactive: 4.75% | 
48 | CCc1nc(C)cn1S(=O)(=O)c1cc([N+](=O)[O-])ccc1Cl |  | inconclusive: 11.2 µM [inhibitor, partial curve]
49 | CCOC(=O)C1(Cc2ccccc2)CCN(Cc2cccn2-c2cccnc2)CC1 |  | inconclusive: 7.08 µM [inhibitor, partial curve, poor fit]
50 | O=C(Nc1ccccc1)c1cc2ccccc2[nH]1 |  | inconclusive: 0.794 µM [inhibitor, full curve, poor fit]
51 | Cc1ccc(CN(Cc2ccco2)C(=O)COc2ccc(Cl)cc2Cl)cc1 |  | inconclusive: 10 µM [inhibitor, partial curve, poor fit]
52 | Cc1nc2ccccc2c(=O)n1/N=C/c1ccc2ccccc2c1O |  | inconclusive: 5.62 µM [inhibitor, partial curve, poor fit]
53 | Cc1ccc(C(=O)c2c3ccc([N+](=O)[O-])cc3[n+]([O-])n2CCCN)cc1 |  | inconclusive: 12.6 µM [inhibitor, partial curve, poor fit]
54 | CC(C)(C)c1ccc(S(=O)(=O)c2cnc(SCC(=O)Nc3ccc(F)c(Cl)c3)[nH]c2=O)cc1 |  | inconclusive: 15.8 µM [inhibitor, single point]
55 | COc1ccc(C(=O)CCN2CCCCCC2)cc1 |  | inconclusive: 8.91 µM [inhibitor, partial curve, poor fit]
56 | CN(C)S(=O)(=O)c1cccc(NC(=O)COC(=O)C2(c3ccccc3F)CCCC2)c1 |  | inconclusive: 35.5 µM [inhibitor, single point]
57 | COc1cc(CNC2CCCC2)cc(Cl)c1OCc1ccccc1Cl |  | inconclusive: 35.5 µM [inhibitor, single point]
58 | CCN1c2ccccc2N(C)C1(C)c1ccccc1 (stereo not drawn) |  | active: 8.91 µM
59 | COc1ccc(OC)c(CCNC(=O)CCn2ccc3cc(S(=O)(=O)N4CCCC4)ccc32)c1 |  | inconclusive: 12.6 µM [inhibitor, single point]
60 | Cc1nn(-c2ccccc2)c2c1N(CCCC(=O)NCc1ccc(Cl)cc1)C(=O)CS2 |  | inconclusive: 14.1 µM [inhibitor, partial curve, poor fit]
61 | O=C(NCc1ccc(Cl)cc1)C(=O)c1c[nH]c2ccccc12 |  | inconclusive: 35.5 µM [inhibitor, single point]
62 | CN1CCN(C(=O)c2cnn(-c3cccc(Cl)c3)c2C2CCN(C(=O)OC(C)(C)C)CC2)CC1 |  | inconclusive: 10 µM [inhibitor, partial curve, poor fit]
63 | N#Cc1ccccc1S(=O)(=O)N1CCCC(c2nc3c(nnn3Cc3cccc(Cl)c3)c(=O)[nH]2)C1 (stereo not drawn) | inactive: 0% | 
